# Measured values as given in paper PMC4336329 (PLoS ONE, 2015).
# Out of some 310,000 compounds screened, about 14,000 (4.5%) showed an effect of 50% or more. Effects have a minus sign here. Some of the results follow.
# Target: human ether-à-go-go-related gene (hERG) potassium channel (human, UniProt Q12809)
# Assay: primary screen, population patch clamp on CHO cells stably expressing hERG
# 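Further: peak tail current of the secondary pulse compared with the same well before compound.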
# Sequence of human ether-à-go-go-related gene (hERG) potassium channel (Q12809 whole entry, looked up): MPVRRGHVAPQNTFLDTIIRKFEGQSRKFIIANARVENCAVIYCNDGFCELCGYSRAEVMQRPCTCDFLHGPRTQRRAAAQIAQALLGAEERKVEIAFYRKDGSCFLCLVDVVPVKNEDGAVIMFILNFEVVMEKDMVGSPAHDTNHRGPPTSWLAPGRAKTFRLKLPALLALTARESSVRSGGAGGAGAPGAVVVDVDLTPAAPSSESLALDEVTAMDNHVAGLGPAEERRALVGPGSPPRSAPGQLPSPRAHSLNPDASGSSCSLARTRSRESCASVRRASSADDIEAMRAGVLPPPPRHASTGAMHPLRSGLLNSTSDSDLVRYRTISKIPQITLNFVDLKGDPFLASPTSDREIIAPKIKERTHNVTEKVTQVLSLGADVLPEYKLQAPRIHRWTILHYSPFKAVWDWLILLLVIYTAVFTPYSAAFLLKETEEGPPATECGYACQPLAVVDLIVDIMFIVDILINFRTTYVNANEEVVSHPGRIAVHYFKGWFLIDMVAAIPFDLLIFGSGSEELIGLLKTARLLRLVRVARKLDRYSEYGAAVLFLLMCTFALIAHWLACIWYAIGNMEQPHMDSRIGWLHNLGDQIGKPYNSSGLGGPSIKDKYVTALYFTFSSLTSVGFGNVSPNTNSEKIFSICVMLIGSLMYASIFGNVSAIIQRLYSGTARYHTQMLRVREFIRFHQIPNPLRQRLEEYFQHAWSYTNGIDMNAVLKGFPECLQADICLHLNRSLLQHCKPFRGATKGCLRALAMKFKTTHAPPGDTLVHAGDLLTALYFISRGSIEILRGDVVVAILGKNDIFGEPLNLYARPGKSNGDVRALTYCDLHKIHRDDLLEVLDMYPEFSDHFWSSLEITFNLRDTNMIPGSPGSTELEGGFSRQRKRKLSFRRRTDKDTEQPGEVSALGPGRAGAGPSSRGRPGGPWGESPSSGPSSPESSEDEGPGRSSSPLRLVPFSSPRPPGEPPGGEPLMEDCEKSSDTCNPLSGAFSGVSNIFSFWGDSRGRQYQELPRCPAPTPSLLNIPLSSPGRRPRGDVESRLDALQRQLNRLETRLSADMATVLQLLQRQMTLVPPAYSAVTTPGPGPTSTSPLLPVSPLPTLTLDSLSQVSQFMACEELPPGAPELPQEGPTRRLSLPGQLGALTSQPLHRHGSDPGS
row,Compound,"hERG current change (%, negative = inhibition) at 10uM [%]"
1,Cc1cc(OCC(=O)OCC(=O)N2c3ccccc3NC(=O)C2(C)C)ccc1Cl,5.9
2,COc1ccc(OC)c(/C=N/NC(=O)CN2CCSCC2)c1,0.397
3,NCCCn1cnc2ccccc21,9.44
4,CC(C)C(=O)NC(NCC1CCCO1)C(Cl)(Cl)Cl (stereo not shown),15.9
5,COc1cccc(N2CCN(c3ccc4nnc(CCC(=O)Nc5cccc(C(C)=O)c5)n4n3)CC2)c1,-3.68
6,CCOc1ccccc1NS(=O)(=O)c1ccc2c(c1)N(C)CCO2,7.1
7,CC(C)CC(=O)N1CCN(S(=O)(=O)c2ccc3ccccc3c2)CC1,-12.9
8,CO/N=C(\C(=O)N[C@@H]1C(=O)N2C(C(=O)[O-])=C(COC(N)=O)CS[C@H]12)c1ccco1.[Na+],18.9
9,COc1ccccc1C(C)N(C)Cc1nc(COc2ccccc2)no1 (stereo not shown),4.69
10,CC(=O)Nc1ccc2c(c1)C(=O)N(c1cccc(C)c1)C2=O,2.75
11,COc1cccc(/C=N/n2c(-c3cc(C)[nH]n3)n[nH]c2=S)c1OC,11.2
12,Cc1cc(C)cc(NC(=O)N2CCNC(=O)C2CC(=O)Nc2cc(Cl)ccc2Cl)c1 (stereo not shown),9.28
13,Cc1cc(C)c(NC(=O)CCCN2CCN(C)CC2)c(C)c1,-3.31
14,CCCCS(=O)(=O)NC1=NCN(CC)CN1,9.98
15,COc1ccccc1NC(=O)CN1C(=O)COc2ccc(S(=O)(=O)N3CCOCC3)cc21,-8.99
16,CC(C)COc1ccc(C(=O)N/N=C/c2ccoc2)cc1,3.4
17,CCc1ccccc1NC(=O)CC(NCc1ccccc1)C(=O)O (stereo not shown),22.5
18,CC1=C(C(=O)N2CCCCCC2)C2(CCC(C)CC2)OC1=O (stereo not shown),2.11
19,Cc1ccc(SCc2cn3c(C)cc(C)nc3n2)cc1,-67.1
20,O=C(O/N=C/c1cccc([N+](=O)[O-])c1)C1CC1,0.336
21,COc1ccc(-n2c(C)nc3c(cnn3-c3ccc(C)c(C)c3)c2=O)cc1,-11.2
22,Nc1ccccc1C(=O)NC12CC3CC(CC(C3)C1)C2,-0.22

row,Compound,"hERG current change (%, negative = inhibition) at 10uM [%]"
1,CCc1ccc(NC(=O)C2CC(=O)N=C(N)S2)cc1 (stereo not shown),15.7
2,Cc1cc(NC(=O)CSc2nnc(-c3ccccc3)n2C)no1,10.1
3,COc1ccc(N2C(=O)CC(N3CCN(C(=O)c4ccco4)CC3)C2=O)cc1 (stereo not shown),2.47
4,O=C(CCc1nnc2n(Cc3ccc(Cl)cc3)c(=O)c3ccccc3n12)NCCN1CCCC1,-75.8
5,CC(C(=O)Nc1ccccc1C(=O)N1CCOCC1)N(c1ccccc1)S(C)(=O)=O (stereo not shown),11.1
6,COc1ccc(CNC(=O)CSc2nc(SC)ns2)cc1,-15.2
7,Cc1cc(NC(=O)CN2CCOCC2)n(-c2ccccc2)n1,0.107
8,O=[N+]([O-])c1cccnc1SCc1ccccc1,18
9,COc1ccc(CN2CCCC(CO)(Cc3ccc(F)cc3)C2)cc1C (stereo not shown),-47.7
10,CC(=O)Nc1ccc(-c2nnc(SCC(=O)c3ccc4c(c3)Cc3ccccc3-4)n2C)cc1,10.8
11,Cc1ccccc1CSc1nc2ccccc2c(=O)n1C,25.5
12,CC(=O)Nc1ccc2c(c1)NC(=O)CC2,18.3
13,COc1ccc(CNC(=O)C2=CC(c3ccc(OC)c(OC)c3)=NS(=O)(=O)N2C)cc1,-21.8
14,CC(=O)c1ccc(NC(=O)CSc2nc(C3CC3)nc3ccccc23)cc1,15
15,O=C(NC(C(=O)N/N=C/c1c2ccccc2cc2ccccc12)c1n[nH]c(=O)c2ccccc12)c1ccccc1 (stereo not shown),12.4
16,N#Cc1ccc(NCCc2ccccn2)c([N+](=O)[O-])c1,-74
17,CCC1Sc2ccc(S(=O)(=O)CCC(=O)Nc3c(Cl)cc(OC)cc3OC)cc2NC1=O (stereo not shown),5.6
18,CCN(C(=O)COC(=O)c1cc(-c2cccc3ccccc23)nc2ccccc12)C1CCS(=O)(=O)C1 (stereo not shown),-6.23
19,COc1cc2c(cc1OC)C(COc1ccc3c(C)cc(=O)oc3c1)N(C(=O)c1ccco1)CC2 (stereo not shown),-17.5
20,CN1CCN(S(=O)(=O)c2cccc(C(=O)N(Cc3nnc(-c4ccc(Cl)cc4)o3)C3CC3)c2)CC1,-49.3
21,CC(NC(=O)CN(C)CC(=O)Nc1ccc(Cl)c(C(F)(F)F)c1)c1ccccc1 (stereo not shown),-12.7
